# Experimental data: ChEMBL document CHEMBL1201862, “PubChem BioAssay data set” (2004)
# Tested on: NCI-H322M
# Test: growth of human tumour cells (NCI), 48 h
row,Structure (SMILES),GI50
1,COc1cccc2[nH]c(-c3ccccn3)nc12,inactive: > 100 µM
2,O=[N+]([O-])c1ccc2nc(O)c(/C=C(\O)c3ccccc3)nc2c1,inactive: 8.71 µM
3,CCCCSCc1nc2nc(Cl)c(Cl)nc2[nH]1,inactive: 28.1 µM
4,CCCCc1ccc(Nc2nc(S)c3ncn(COCCO)c3n2)cc1,inactive: 53.7 µM
5,COc1cc(/C=C2\C[C@H]3[C@@H]4CCc5cc(O)ccc5[C@H]4CC[C@]3(C)C2=O)cc(OC)c1OC,inactive: 6.18 µM
6,O=C1c2ccccc2C(=O)N1c1ccc(Cc2ccc(N3C(=O)c4ccccc4C3=O)cc2)cc1,inactive: > 100 µM
7,CCOc1ccc(C2Oc3c(cccc3OC)C=C2[N+](=O)[O-])cc1OCC (configuration not stated),inactive: 14.3 µM
8,CC1CCC(=O)NCCCCC(=O)N1 (configuration not stated),inactive: > 100 µM
9,CO[C@H](c1ccccc1)[C@H](O)[C@](O)(c1ccccc1)P(=O)(OC)OC,inactive: > 100 µM
10,COc1cc(OC)nc(Nc2c(C#N)c3nc4ccccc4n3c3ccccc23)n1,inactive: 21.6 µM
11,Cc1[nH]c2ccccc2c1C(=O)/C=C/c1ccccc1O,inactive: > 100 µM
12,COC(=O)c1c(O)c2c(c3c1OC(C)(C)CC3)OC(C)(C)CC2,inactive: 25.2 µM
13,Cc1cc2nc3c(C#N)c(C)c(CCCl)c(Cl)n3c2cc1C,inactive: 5.82 µM
14,CC(=O)N(CN1C(=O)CCC1C(=O)O)c1ccc(C)cc1 (configuration not stated),inactive: > 100 µM
15,N#Cc1ccccc1C(Cl)(Cl)c1cnccn1,inactive: > 100 µM
16,COc1ccc(-c2c(C#N)c(S)n(NS(=O)(=O)c3ccc(C)cc3)c(=O)c2C#N)cc1,inactive: 69.7 µM
17,CC1CCC(=O)C(C(O)CC2CC(=O)N(c3ccccc3)C(=O)C2)C1 (configuration not stated),inactive: > 100 µM
18,C1CSCCSS[C@@H]2CCCCC2SC1 (some centres not stated),inactive: > 100 µM
19,O=C(O)CNCc1c2ccccc2[n+]([O-])c2ccccc12,inactive: 43.7 µM
20,O=C(/C=C/c1c(O)ccc2ccccc12)c1cccc2ccccc12,inactive: > 100 µM
21,CC(=O)OC1CCN(C(=O)c2ccccc2)CC1CC1(c2cc3ccccc3[nH]2)OCCO1 (configuration not stated),inactive: > 100 µM
22,c1ccc(CNc2nncc3[nH]cnc23)cc1,inactive: > 100 µM
23,COC(=O)CCCc1nc2ccccc2nc1/N=N/c1ccccc1,inactive: > 100 µM

row,Structure (SMILES),GI50
1,Cc1ccc(NC=O)c(-c2c(N)[nH]c(=S)[nH]c2=O)c1,inactive: > 100 µM
2,CN(/N=C/c1cccc2cccnc12)c1c([N+](=O)[O-])cc([N+](=O)[O-])cc1[N+](=O)[O-],inactive: > 100 µM
3,NC1=NN(c2ccccc2)C(=O)C1C(=O)C(=O)Nc1ccccc1 (configuration not stated),inactive: > 100 µM
4,Cc1cc(NS(=O)(=O)c2ccc(NC(=O)c3ccc4nc5ccccc5c(Nc5ccc(S(=O)(=O)N=C(N)N)cc5)c4c3)cc2)no1,inactive: 24.3 µM
5,COc1cccc(CC2Cc3ccccc3CC(=O)N2)c1 (configuration not stated),inactive: 54.2 µM
6,COc1ccc(C(=O)Nc2ccc3oc(-c4ccccc4)nc3c2)cc1,inactive: > 100 µM
7,C[C@]12CC/C(=N\O)C=C1CC[C@@H]1C2CC[C@@]2(C)C1CC[C@@H]2OC1CCCCO1 (some centres not stated),inactive: > 100 µM
8,O=c1[nH]nc(Cc2ccccc2)n1/N=C/c1c[nH]c2ccccc12,inactive: > 100 µM
9,COCOc1cc(OC)ccc1C=O,inactive: 47 µM
10,Cc1nc2ccc(Cl)cc2c2c1CCN2c1ccccc1,inactive: 15 µM
11,C=C1C(=O)OC2CC1CCC1(C)OC1CCC(C)=CCCC2(C)O (configuration not stated),inactive: 9.16 µM
12,Cn1c(=O)oc2cc(C(=S)N3CCCCC3)ccc21,inactive: > 100 µM
13,COc1ccc2nc3cc(Cl)ccc3c(Sc3ccc(NC(C)=O)cc3)c2c1,inactive: > 38.1 µM
14,CO/N=C(/C)c1cccc(Nc2nc3ccc(Cl)cc3c3[nH]c4ccccc4c23)c1,inactive: 3.22 µM
15,Cc1cn(C2CC(O)C(COC(=O)NCCC(F)(F)C(F)(F)C(F)(F)C(F)(F)F)O2)c(=O)[nH]c1=O (configuration not stated),inactive: > 100 µM
16,O=C1C(=Cc2cccc(Cl)c2)N=C(c2ccccc2)N1n1c(-c2ccccc2)nc2ccccc2c1=O,inactive: 44.8 µM
17,COC(=O)c1nc(N)nc(O)c1-c1ccc(Cl)cc1,inactive: > 100 µM
18,Cc1ccc(C)n1-n1c(-c2ccccc2)n[nH]c1=O,inactive: > 100 µM
19,Cc1cc(CCC(=O)NCCNc2c3ccccc3nc3ccccc23)cc(C)c1O[Si](C)(C)C(C)(C)C,inactive: 1.69 µM
20,CCOC(=O)C(=O)/C(=C/n1c(=S)[nH]c2ccc([N+](=O)[O-])cc21)C(=O)OCC,inactive: > 100 µM
21,Cc1cccc2c1[nH]c1[nH]c(=O)[nH]c(=O)c12,inactive: > 100 µM
22,O=C(N/N=C\C(F)(F)F)c1ccncc1,inactive: 37.8 µM
23,ClCCCCOC1CCCCO1 (configuration not stated),inactive: > 100 µM

row,Structure (SMILES),GI50
1,C=CCCOC(=O)CO[N+](=O)[O-],inactive: > 100 µM
2,COC(=O)/C1=C/C2CC(/C=C(/c3ccccc3)C(=O)O1)C2,inactive: 34.3 µM
3,Fc1ccc(/N=N/N2CCCC2)cc1,inactive: > 100 µM
4,COC(=O)C1=C(C)N(NC(=O)c2ccccc2)C(C)(O)C12CCOC2=O (configuration not stated),inactive: > 100 µM
5,CCN(CCCl)c1cc(CN(C)C)cc(NC(=O)c2ccc(C(=O)Nc3ccccc3)cc2)c1,inactive: 1.48 µM
6,Oc1ccc(Cl)cc1/C=N/c1cnc2ccccc2c1,inactive: 26.6 µM
7,C[C@]12CCC3c4ccc(O)cc4CC[C@H]3C1CC(=O)N(CCN1CCCC1)C2=O (some centres not stated),inactive: > 10 µM
8,O=CNc1cccc2c3c([nH]c12)CCCCCC3,inactive: > 100 µM
9,CC[n+]1c(/C=C/c2ccc(N(CCCl)CCCl)cc2)ccc2cc(I)ccc21,inactive: 2.14 µM
10,COC(=O)C(=O)C(C#N)c1c(Cl)cccc1Cl (configuration not stated),inactive: > 100 µM
11,O=C1C2=C(C(c3ccccc3)=C1c1ccccc1)c1ccccc1C1(c3ccccc3)C2=C(O)C(c2ccccc2)=C1c1ccccc1 (configuration not stated),inactive: > 100 µM
12,COC(=O)C1=C(O)C(C(=O)OC)[C@]2(O)[C@H](C(=O)OC)[C@H]1C[C@@H](c1cccc(OC)c1)[C@H]2C(=O)OC (some centres not stated),inactive: 28.1 µM
13,COC(=O)C(Cc1ccccc1)NS(=O)(=O)c1ccc(-c2c3nc(c(-c4ccc(S(=O)(=O)NC(Cc5ccccc5)C(=O)OC)cc4)c4ccc([nH]4)c(-c4ccc(S(=O)(=O)NC(Cc5ccccc5)C(=O)OC)cc4)c4nc(c(-c5ccc(S(=O)(=O)NC(Cc6ccccc6)C(=O)OC)cc5)c5ccc2[nH]5)C=C4)C=C3)cc1 (configuration not stated),inactive: > 100 µM
14,COc1cc(-c2c(C)c(C)nc(OC)c2C#N)cc(OC)c1OC,inactive: > 100 µM
15,CCC(CCN)(CCN)[N+](=O)[O-],inactive: > 100 µM
16,Cc1ccc(-c2nc3ccccc3c(=O)n2NC2OC(CO)C(O)C(O)C2O)cc1 (configuration not stated),inactive: > 100 µM
17,CCOC(=O)[C@@]12CCC(C1=O)[C@](C)(O)C[C@@H]2c1ccccc1,inactive: 85.3 µM
18,COc1ccc2c(-c3csc(-c4c[nH]c5ccccc45)n3)c[nH]c2c1,inactive: 7.55 µM
19,CC1=CC2=C(OCO1)C(=O)c1ccccc1C2=O,inactive: 13.6 µM
20,C=CCN(c1cc(OCc2ccccc2)c2c(c(C)cn2S(=O)(=O)c2ccc([N+](=O)[O-])cc2)c1[N+](=O)[O-])S(C)(=O)=O,inactive: > 100 µM
21,CC(=O)OCCC1c2ccccc2-n2nc(-c3ccccc3)c(O)c21 (configuration not stated),inactive: 16.1 µM
22,CCCc1nc(NC#N)nc(C(=O)Nc2ccccc2)c1CC,inactive: > 100 µM
23,c1cc2[se][se]c3c4cccc5[se][se]c(c(c1)c23)c54,inactive: > 100 µM

row,Structure (SMILES),GI50
1,C=C(C(N)=O)c1ccc([N+](=O)[O-])o1,inactive: 22.1 µM
2,CSC(=S)CC(O)[C@@H]1CC2c3ccccc3C1c1ccccc12 (some centres not stated),inactive: 16.7 µM
3,CC(C)(C)OC(=O)/C=C/[C@@H](CCC(=O)/C=C/[C@H](/C=C\CCCC(=O)O)NC1(c2ccccc2)c2ccccc2-c2ccccc21)O[Si](C)(C)C(C)(C)C,inactive: 18.8 µM
4,N#Cc1c(N)nc2[nH]nc(N)c2c1-c1ccc(Cl)cc1,inactive: 11 µM
5,O=C(Cc1ccccc1)NN1C(=O)/C(=C\c2ccc([N+](=O)[O-])cc2)S/C1=N\c1ccccc1,inactive: > 100 µM
6,O=c1c2cc(Br)ccc2ncn1COCc1ccccc1,inactive: > 100 µM
7,CCOC(=O)c1ccc(/N=N/N(C)C(=O)C(C)N)cc1 (configuration not stated),inactive: 78.7 µM
8,CCN(C(=O)N[C@H](C(=O)N[C@@H](C)C(=O)OC)C(C)C)c1ccccc1,inactive: > 100 µM
9,COc1ccc2oc(S(=O)(=O)N3CC(CCl)c4ccc([N+](=O)[O-])cc43)cc2c1 (configuration not stated),active: 0.447 µM
10,COc1ccc(-c2oc3cc(-c4cc5oc(-c6ccc(OC)cc6)c(-c6ccc(OC)cc6)c5cc4OC)c(OC)cc3c2-c2ccc(OC)cc2)cc1,inactive: > 100 µM
11,CCCCSC1CCSc2c1ccc1ccccc21 (configuration not stated),inactive: > 100 µM
12,O=S1(=O)c2ccccc2N(c2ccccc2)c2nnnn21,inactive: 39.4 µM
13,OCC1=CC(NC2CC(CO)C(O)C(O)C2O)C(O)C(O)C1O (configuration not stated),inactive: > 100 µM
14,Cc1sc2ncnc(NCCc3ccccc3)c2c1C,inactive: 13.2 µM
15,O=C(N/C(=C\c1cc(Cl)ccc1Cl)c1nc2c(O)nc(S)nc2[nH]1)c1ccccc1,inactive: 39.9 µM
16,NN/C(=N\S(=O)(=O)c1cc(Cl)c(Oc2ccc([N+](=O)[O-])cc2Cl)c(Cl)c1)Nc1ccc(Cl)cc1,inactive: 22.9 µM
17,N#CCC(=O)Nc1ccccc1O,inactive: > 100 µM
18,CCC1=NC(N/N=C/c2ccco2)=N/C1=C\c1ccco1,inactive: > 100 µM
19,CN1C/C(=C\c2ccc(C(=O)O)cc2)C(=O)/C(=C/c2ccc(C(=O)O)cc2)C1,inactive: > 100 µM
20,CC(O[Si](c1ccccc1)(c1ccccc1)C(C)(C)C)[C@H](NC(=O)OC(C)(C)C)C(=O)O[Si](c1ccccc1)(c1ccccc1)C(C)(C)C (some centres not stated),inactive: 12.6 µM
21,O=c1c2ccccc2[nH]c2cc(O)cc(O)c12,inactive: > 100 µM
22,Cc1cc(-c2nc3c(F)cccc3s2)ccc1N,inactive: 23.2 µM
23,CC(C)C[C@H](NC(=O)[C@H](Cc1cccc2ccccc12)NS(=O)(=O)c1cccc2cccnc12)B(O)O,active: 0.637 µM

#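 Grown in 96-well plates, cells were treated for 48 hours with each compound at five concentrations. Insufficient inhibition: endpoint recorded as highest concentration tested. At the GI50, growth is halved.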 The source made the active and inactive calls. Rule as the data show it: active = GI50 up to about 1.1 µM and inactive = higher.
